# Test results as given in PMC4336329 (PLoS ONE, 2015).
# The campaign covered roughly 310,000 compounds. About 2,200 (0.71%) showed an effect of 50% or more. The effect is printed as a negative number. Some of the results follow.
# Target: human ether-à-go-go-related gene (hERG) potassium channel (human, UniProt Q12809)
# Experiment: primary screen, population patch clamp on CHO cells stably expressing hERG
# Sequence of human ether-à-go-go-related gene (hERG) potassium channel (Q12809 whole entry, looked up): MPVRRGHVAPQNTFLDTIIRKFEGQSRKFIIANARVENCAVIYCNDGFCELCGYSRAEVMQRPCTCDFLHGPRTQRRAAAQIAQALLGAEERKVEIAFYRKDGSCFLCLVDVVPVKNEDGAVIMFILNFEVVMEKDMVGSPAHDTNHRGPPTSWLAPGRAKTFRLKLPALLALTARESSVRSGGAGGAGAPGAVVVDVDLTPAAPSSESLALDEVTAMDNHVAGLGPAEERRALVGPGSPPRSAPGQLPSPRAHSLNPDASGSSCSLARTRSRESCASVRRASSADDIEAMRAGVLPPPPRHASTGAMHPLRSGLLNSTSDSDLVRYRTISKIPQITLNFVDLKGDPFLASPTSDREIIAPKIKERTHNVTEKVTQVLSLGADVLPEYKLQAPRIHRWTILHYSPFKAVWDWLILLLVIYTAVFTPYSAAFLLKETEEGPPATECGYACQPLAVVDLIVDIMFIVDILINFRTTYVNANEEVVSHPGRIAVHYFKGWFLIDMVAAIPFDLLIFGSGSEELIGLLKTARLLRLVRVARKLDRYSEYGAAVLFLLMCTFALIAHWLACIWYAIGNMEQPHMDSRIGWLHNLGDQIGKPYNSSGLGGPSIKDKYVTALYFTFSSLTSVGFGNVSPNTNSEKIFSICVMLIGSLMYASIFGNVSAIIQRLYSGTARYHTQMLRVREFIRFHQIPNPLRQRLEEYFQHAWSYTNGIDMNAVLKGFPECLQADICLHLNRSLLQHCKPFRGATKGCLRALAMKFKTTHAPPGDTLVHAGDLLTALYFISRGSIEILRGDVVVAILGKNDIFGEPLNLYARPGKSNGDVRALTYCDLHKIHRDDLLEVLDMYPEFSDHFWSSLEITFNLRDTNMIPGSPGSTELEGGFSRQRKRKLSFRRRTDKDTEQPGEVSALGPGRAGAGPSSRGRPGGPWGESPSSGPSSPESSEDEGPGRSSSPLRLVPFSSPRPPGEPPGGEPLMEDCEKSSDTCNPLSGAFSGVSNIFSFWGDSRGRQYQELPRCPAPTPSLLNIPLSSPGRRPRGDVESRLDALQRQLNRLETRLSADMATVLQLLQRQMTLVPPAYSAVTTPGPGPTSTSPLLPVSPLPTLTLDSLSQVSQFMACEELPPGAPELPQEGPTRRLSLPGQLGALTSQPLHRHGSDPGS
row,Compound,"hERG current change (%, negative = inhibition) at 1uM [%]"
1,CCCCc1nnc(NC(=O)c2ccccc2OCc2c(C)noc2C)s1,-1.29
2,N#Cc1nc(Cc2cccc3ccccc23)oc1NCCN1CCOCC1,-11.2
3,Cc1ccc(S(=O)(=O)NCc2cccnc2)cc1C(=O)NC1CCCCC1,-1.3
4,CCN(CC)S(=O)(=O)c1ccc(OC)c(NC(=O)c2ccc(N3CCCC3=O)cc2)c1,10.3
5,Cc1cc(C)n(C(=O)c2cccc([N+](=O)[O-])c2C)n1,12
6,Cc1nn(Cc2ccc(Cl)cc2)c(C)c1NC(=O)CSc1nc2c(c(C(F)(F)F)n1)CCc1ccccc1-2,0.446
7,COc1ccc(OC(C)C(=O)N(C)Cc2nc(-c3ccccc3)no2)cc1 (stereo not drawn),13
8,O=C(Nc1nc(-c2ccc(F)c(F)c2)cs1)c1ccc(OCC2CCCO2)cc1 (stereo not drawn),8
9,Cc1cc(=O)oc2c(C)c(OCC(=O)Nc3cccnc3)ccc12,5.29
10,COc1ccc(C2CC(c3ccccc3)=NN2C(=O)COC(=O)c2cc(S(=O)(=O)N3CCOCC3)ccc2Cl)cc1 (stereo not drawn),1.95
11,CCCCn1c2ccc(C)cc2c2nnc(SCCN3CCCCC3)nc21,-33.6
12,Cc1ccc(CS(=O)Cc2ccc(C(=O)NCc3ccccc3Br)o2)cc1 (stereo not drawn),17.4
13,O=C(CSc1nc2ccccc2s1)N1CCCCC1,4.67
14,Cc1ccccc1C(=O)/C(C#N)=N/Nc1c(C)n(C)n(-c2ccccc2)c1=O,9.32
15,CCc1ccc(N(C(=O)c2csnn2)C(C(=O)NC(C)(C)C)c2cccnc2)cc1 (stereo not drawn),9.51
16,COc1ccc(CNC(=O)COC(=O)CCCOc2ccc(Cl)cc2Cl)cc1,10.7
17,CC(=O)N1c2ccc(S(=O)(=O)N3CCC(C(=O)Nc4cccc(C)c4)CC3)cc2CC1C (stereo not drawn),16.4
18,COc1cccc(C(O)c2nc3ccccc3n2C(C)C)c1 (stereo not drawn),9.4
19,O=C(CSc1nnc2ccc(-c3cccnc3)nn12)Nc1ccccc1,-6.16
20,Clc1ccc(OCCn2ccnc2)cc1Cl.O=C(O)C(=O)O,11.1
21,CC(N=c1ccccn1C(=O)Nc1ccc(F)cc1)c1ccco1 (stereo not drawn),10
22,CC(C)C(NS(=O)(=O)c1cc(C(=O)O)ccc1Cl)C(=O)O (stereo not drawn),14.6
23,Cc1ccc(OCC(=O)NCCN2CCCC2)cc1.Cl,1.81
24,CCOC(=O)/C(C#N)=C/c1c(N2CCN(Cc3ccc4c(c3)OCO4)CC2)nc2c(C)cccn2c1=O,11.9
